According to publication PMC4336329 (PLoS ONE, 2015):
The whole screen tested about 310,000 compounds, of which about 2,200 (0.71%) showed an effect of 50% or more. Effects have a minus sign here. The list shows a part of the results.

Target: human ether-à-go-go-related gene (hERG) potassium channel (human, UniProt Q12809)
Test: primary screen, population patch clamp on CHO cells stably expressing hERG

Chain of human ether-à-go-go-related gene (hERG) potassium channel (Q12809 whole entry, looked up): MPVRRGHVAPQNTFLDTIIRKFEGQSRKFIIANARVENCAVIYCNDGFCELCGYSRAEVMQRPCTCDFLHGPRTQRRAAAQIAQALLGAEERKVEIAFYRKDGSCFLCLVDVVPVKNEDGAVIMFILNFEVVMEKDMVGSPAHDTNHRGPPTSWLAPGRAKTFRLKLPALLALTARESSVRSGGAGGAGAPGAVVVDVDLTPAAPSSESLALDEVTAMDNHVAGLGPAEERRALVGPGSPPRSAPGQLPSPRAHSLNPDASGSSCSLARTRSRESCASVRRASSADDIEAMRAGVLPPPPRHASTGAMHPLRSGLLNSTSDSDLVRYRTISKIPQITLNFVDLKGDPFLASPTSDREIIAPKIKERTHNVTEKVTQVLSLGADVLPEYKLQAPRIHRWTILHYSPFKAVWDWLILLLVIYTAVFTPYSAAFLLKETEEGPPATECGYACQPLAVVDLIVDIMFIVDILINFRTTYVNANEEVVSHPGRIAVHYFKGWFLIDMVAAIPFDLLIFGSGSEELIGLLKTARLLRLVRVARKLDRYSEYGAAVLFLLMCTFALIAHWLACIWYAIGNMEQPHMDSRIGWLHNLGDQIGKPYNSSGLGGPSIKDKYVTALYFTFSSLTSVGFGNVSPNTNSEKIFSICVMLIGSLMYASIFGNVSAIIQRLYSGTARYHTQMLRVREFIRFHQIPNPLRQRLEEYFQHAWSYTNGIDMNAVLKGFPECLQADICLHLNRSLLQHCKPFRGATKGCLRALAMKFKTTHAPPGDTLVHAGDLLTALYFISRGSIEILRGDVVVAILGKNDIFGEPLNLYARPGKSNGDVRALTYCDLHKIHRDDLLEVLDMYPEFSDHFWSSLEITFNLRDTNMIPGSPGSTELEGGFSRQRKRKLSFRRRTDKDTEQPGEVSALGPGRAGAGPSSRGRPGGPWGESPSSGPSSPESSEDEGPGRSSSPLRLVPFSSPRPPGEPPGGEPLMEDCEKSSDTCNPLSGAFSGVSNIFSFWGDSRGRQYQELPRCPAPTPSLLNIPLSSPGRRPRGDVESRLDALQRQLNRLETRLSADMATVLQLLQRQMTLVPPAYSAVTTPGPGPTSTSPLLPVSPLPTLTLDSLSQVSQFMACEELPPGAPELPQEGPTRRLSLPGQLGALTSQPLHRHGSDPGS

| Compound | hERG current change (%, negative = inhibition) at 1uM |
| --- | --- |
| CC(CCN1C(Nc2ccccc2)=NC[C@@H]1C)c1ccccc1 (some centres unmarked) | -29.6% |
| O=C(CCN1C(=O)c2ccccc2S1(=O)=O)Nc1ccc(F)c(F)c1F | -1.67% |
| Cn1nc(-c2ccccc2)c(-c2nc(-c3cccc(Cl)c3)no2)c1Cl | 9.29% |
| COc1ccc(OC)c(-n2c(=S)[nH]c3cc(C(=O)N4CCCCC4)ccc3c2=O)c1 | 16.9% |
| Cc1cc(Br)c(Cl)cc1NC(=O)CN1C(=O)C2C3CC(c4ccccc4)C(C3)C2C1=O (centres unmarked) | 10.5% |
| O=C(c1ccccc1F)N1CCOCC1 | 13.3% |
| CCOc1cccc(NC(=O)c2cnccc2C(F)(F)F)c1 | 0.997% |
| COc1ccc(NC(=O)C2=C(C)NC(=O)NC2c2ccccc2[N+](=O)[O-])cc1 (centres unmarked) | 12.3% |
| O=C(N/N=C/c1ccco1)c1ccncc1 | 13.6% |
| Cc1nc(-c2ccc(NC(=O)c3ccco3)cc2)cs1 | 16.1% |
| OCc1nnn(-c2cccc(C(F)(F)F)c2)c1CO | 11.3% |
| COc1cccc2c1OCC(CN1CCN(Cc3ccccc3F)C(CCO)C1)=C2 (centres unmarked) | 12% |
| O=C(N/N=C/C(Cl)=C/c1ccccc1)c1ccncc1 | 7.86% |
| O=C(NNC(=S)Nc1ccccc1)C1CCCCC1 | 17.5% |
| CC(C)c1nc(SCC(=O)N2CCCc3ccccc32)c2c(=O)n(C)c(=O)n(C)c2n1 | 7.58% |
| CC(C)[C@H](NC(=O)c1ccccc1)C(=O)OCC(=O)Nc1ccc(Cl)cc1C(F)(F)F | 11.3% |
| COC(=O)C(CC(C)C)N1CCC(=O)c2ccccc2S1(=O)=O (centres unmarked) | 4.94% |
| Cc1cc(C2C(=O)C(C(=O)c3ccc(Cl)cc3)C(=O)CC2(C)C)on1 (centres unmarked) | 3.56% |
| O=C(CSc1nnnn1-c1cccc2c1CCCC2)N1CCOCC1 | 14.8% |
| Cc1ccccc1NCC(=O)N/N=C/c1c[nH]c2ccccc12 | 10.5% |
| COc1cc(C)ccc1OCCOc1c(C)cccc1Cl | 8.94% |
| CC(NC(=O)c1cccc(OC2CCN(C(=O)C3CC3)CC2)c1)c1ccc(F)cc1 (centres unmarked) | 7.37% |
| Cc1ccnc(N2CCN(C(=O)CSc3nc4ccccc4nc3N3CCC(C)CC3)CC2)c1 | 7.39% |

| Compound | hERG current change (%, negative = inhibition) at 1uM |
| --- | --- |
| O=C(COC(=O)CCSc1ccc(Cl)cc1)NCc1ccco1 | 14% |
| Nc1ccc(S(=O)(=O)N2CCCC2)cc1Cl | 9.49% |
| COC(=O)CCc1nc2ccccc2[nH]c1=O | -6.48% |
| COc1ccc(/C=C2\SC(=S)N(CCC(=O)Nc3cccc(C(=O)O)c3)C2=O)cc1OC | 9.68% |
| COc1ccc(CC(=O)Nc2ccc(-c3cn4cccc(C)c4n3)cc2)cc1OC | -1.68% |
| Cc1cc(Cl)c2oc(C(=O)N3CCC(O)(c4ccccc4)CC3)c(C)c2c1 | 13.4% |
| CCOC(=O)C1=NN(C(=O)Cc2ccccc2)C(O)(C(C)(C)C)C1 (centres unmarked) | 5.39% |
| O=C(Cn1cc(C(=O)C2CC2)c2ccccc21)NCc1ccccc1 | 10.1% |
| COc1cc(/C=C/c2cc[n+](C)cc2)ccc1OCC(=O)Nc1ccc(Cl)c(Cl)c1.[I-] | 8.29% |
| O=C1c2ccccc2C(=O)N1CC1c2ccccc2CCN1C(=O)N1CCOCC1 (centres unmarked) | -2.07% |
| COc1ccc2nc3c(cc2c1)c(NC(=O)c1cccs1)nn3CC(C)C | 8.83% |
| Cc1ccc(S(=O)(=O)/N=c2\sccn2C)cc1 | 16.9% |
| CCOC(=O)/C(=C\Nc1ccc(OC(F)(F)F)cc1)Sc1ncc(C(F)(F)F)cc1Cl | 12.6% |
| Cc1ccc(C(=O)CC2C(=O)N(c3ccccc3)C(=S)N2c2ccccc2)cc1 (centres unmarked) | -0.545% |
| O=C1c2ccccc2C(=O)N1CCSc1nc2ccccc2c(=O)n1CCCN1CCOCC1 | 8.97% |
| CC(C)OC(=O)Cn1nc(C(c2ccccc2)c2ccccc2)oc1=O | 3.61% |
| CNc1nc(Cl)c(SC)c(N2CCOCC2)n1 | 4.79% |
| COc1cc(NS(=O)(=O)c2ccc(NC(C)=O)cc2)ncn1 | 2.6% |
| COc1ncccc1-c1nnn(-c2ccc(F)cc2)n1 | 10.2% |
| CCOC(=O)c1ccc(-c2ccc(C3Nc4ccccc4C(=O)N3O)o2)cc1 (centres unmarked) | 17.6% |
| Cl.N#Cc1ccc(OCC(=O)N2CCN(Cc3ccc4c(c3)OCO4)CC2)cc1 | -22% |
| CCC(C)(C)NC(=O)C(c1ccc(F)cc1)N(Cc1ccc(OC)cc1)C(=O)c1cnccn1 (centres unmarked) | 2.57% |
| CC(NC(=O)c1ccco1)C(c1cccs1)N1CCN(c2ccccc2F)CC1 (centres unmarked) | 4.85% |

| Compound | hERG current change (%, negative = inhibition) at 1uM |
| --- | --- |
| CC(C)(C)C(=O)NC(=S)NNC(=O)c1sc2ccccc2c1Cl | 3.94% |
| O/N=C1/C(=C\c2ccccc2)N2CCC1CC2 | 8.41% |
| NS(=O)(=O)c1ccc(Sc2nc3ccccc3s2)c([N+](=O)[O-])c1 | 11.7% |
| CC(C)C1S/C(=N/N=C/c2ccco2)NC1=O (centres unmarked) | 0.697% |
| COc1ccccc1NC(=O)CSc1n[nH]c(Cc2ccccc2)n1 | 14% |
| O=C1C2C(c3ccccc3)C=CC(c3ccccc3)C2C(=O)N1CCO (centres unmarked) | 5.96% |
| CC1(C)CC(NS(=O)(=O)c2ccc(S(=O)(=O)N3CCOCC3)cc2)CCO1 (centres unmarked) | 5.73% |
| CCOC(=O)c1ccc(NC(=S)NCCc2ccc(F)cc2)cc1 | 16.5% |
| Cc1cccc(C(=O)c2cn[nH]c2-c2ccccc2O)c1 | 12.9% |
| CC(C)Cn1c(S(=O)(=O)O)nc2ccccc21 | 10.5% |
| CCOc1ccc(N2C(=O)c3cccnc3C2Nc2ccc(C)c(C)c2)cc1 (centres unmarked) | -11.5% |
| CCOc1ccc(NC(=O)CCC(=O)NNC(=O)c2ccccc2Cl)cc1 | 9.97% |
| Cc1ccc(C(C)C)c(O)c1 | 17.6% |
| COc1cccc(CN2c3ccc(Br)cc3C(=O)CS2(=O)=O)c1 | 9.69% |
| CCOC(=O)c1[nH]c2ccccc2c1NC(=O)CCN1CC(C)OC(C)C1 (centres unmarked) | 8.6% |
| CC(=O)Nc1ccc(-c2cn3cc(C)ccc3n2)cc1 | 6.73% |
| CSCCC(NC(=O)c1ccccc1)C(=O)N(C)CC(=O)Nc1ccc(N2CCOCC2)cc1 (centres unmarked) | 7.93% |
| CCOC(=O)C1(CCCc2ccccc2)CCN(S(=O)(=O)N(C)C)CC1 | 6.81% |
| CCOC(=O)CS(=O)(=O)c1ccc(C(F)(F)F)cn1 | -3.12% |
| Cc1ccc(/C=C/S(=O)(=O)Nc2ccc(C)cc2)cc1 | -11.4% |
| Cc1cccc(Cn2c(NCC(C)O)nc3c2c(=O)n(C)c(=O)n3C)c1 (centres unmarked) | 11.8% |
| O=C1c2ccccc2NC(c2ccc(O)c(O)c2)N1c1ccccc1Cl (centres unmarked) | 14.8% |
| COc1ccccc1-c1c(C)nn2c(N3CCN(Cc4ccccc4)CC3)cc(C)nc12 | 6.35% |

| Compound | hERG current change (%, negative = inhibition) at 1uM |
| --- | --- |
| Cc1cccc2cc(COC(=O)c3cccs3)c(=O)[nH]c12 | 3.69% |
| c1cc(-c2nnc3sc(C4CCCCC4)nn23)ccn1 | -16.1% |
| CCOC(=O)c1oc2ccccc2c1COC(=O)C(C)NC(=O)c1ccco1 (centres unmarked) | 7.97% |
| Cc1ccsc1CNC(=O)c1c(-c2ccccc2)noc1C | 20.3% |
| Cc1cc(C)n(CC(=O)N/N=C/c2ccc3c(c2)OCO3)n1 | 16.7% |
| O=C1CC(N2CCN(c3ccc(Cl)c(Cl)c3)CC2)C(=O)N1 (centres unmarked) | 2.61% |
| Cc1sc(NC(=O)c2ccco2)c(C(c2ccncc2)N2CCOCC2)c1C (centres unmarked) | -4.44% |
| CC(C)NC(=O)CSc1nc(N)c(NC(=O)c2ccco2)c(=O)[nH]1 | 10.2% |
| Cc1ccccc1S(=O)(=O)Cc1ccc(C(=O)NCc2ccccc2)o1 | -0.459% |
| COc1ccc(CNC(=O)C2(C)Cc3ccccc3C(=O)O2)cc1 (centres unmarked) | 22.5% |
| CC1Cc2ccccc2N1S(=O)(=O)c1cccc(C(=O)OCC(=O)NCc2ccco2)c1 (centres unmarked) | 9.96% |
| Cc1ccc(N2C(=O)C3NN=C(C(=O)OCc4ccccc4)C3C2=O)cc1 (centres unmarked) | 5.92% |
| O=C(C1=C(O)C(=O)N(c2ncccn2)C1c1ccc(F)cc1)c1ccco1 (centres unmarked) | 15.3% |
| Cc1csc(NC(=O)CSc2nnc(NC(=O)C3CC(=O)N(c4ccccc4)C3)s2)n1 (centres unmarked) | 2.79% |
| Cc1ccc(S(=O)(=O)c2ccc(NC(=O)c3c(F)cccc3F)cc2)cc1 | 18.1% |
| CCN(C(=O)CCc1ccccc1)C1CCCCC1 | 17% |
| COc1ccc(CCNC(=O)CCCCC(=O)NCCc2ccc(OC)cc2)cc1 | 11.5% |
| COc1ccccc1Nc1nc(NCC(C)C)nc(N)c1[N+](=O)[O-] | 16.2% |
| CCn1c(COC(=O)CNC(=O)c2ccccc2)nc2cc(S(=O)(=O)N(C)C)ccc21 | 10.2% |
| COc1ccc(-c2n[nH]c(=S)n2CC(C)C)cc1 | 6.26% |
